In all, about 310,000 compounds went through this assay and about 14,000 (4.5%) showed an effect of 50% or more. Effects have a minus sign here. The list shows a part of the results.
Target: human ether-à-go-go-related gene (hERG) potassium channel (human, UniProt Q12809)
Assay: primary screen, population patch clamp on CHO cells stably expressing hERG
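Also: peak tail current of the secondary pulse compared with the same well before compound.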

Chain of human ether-à-go-go-related gene (hERG) potassium channel (Q12809 whole entry, looked up): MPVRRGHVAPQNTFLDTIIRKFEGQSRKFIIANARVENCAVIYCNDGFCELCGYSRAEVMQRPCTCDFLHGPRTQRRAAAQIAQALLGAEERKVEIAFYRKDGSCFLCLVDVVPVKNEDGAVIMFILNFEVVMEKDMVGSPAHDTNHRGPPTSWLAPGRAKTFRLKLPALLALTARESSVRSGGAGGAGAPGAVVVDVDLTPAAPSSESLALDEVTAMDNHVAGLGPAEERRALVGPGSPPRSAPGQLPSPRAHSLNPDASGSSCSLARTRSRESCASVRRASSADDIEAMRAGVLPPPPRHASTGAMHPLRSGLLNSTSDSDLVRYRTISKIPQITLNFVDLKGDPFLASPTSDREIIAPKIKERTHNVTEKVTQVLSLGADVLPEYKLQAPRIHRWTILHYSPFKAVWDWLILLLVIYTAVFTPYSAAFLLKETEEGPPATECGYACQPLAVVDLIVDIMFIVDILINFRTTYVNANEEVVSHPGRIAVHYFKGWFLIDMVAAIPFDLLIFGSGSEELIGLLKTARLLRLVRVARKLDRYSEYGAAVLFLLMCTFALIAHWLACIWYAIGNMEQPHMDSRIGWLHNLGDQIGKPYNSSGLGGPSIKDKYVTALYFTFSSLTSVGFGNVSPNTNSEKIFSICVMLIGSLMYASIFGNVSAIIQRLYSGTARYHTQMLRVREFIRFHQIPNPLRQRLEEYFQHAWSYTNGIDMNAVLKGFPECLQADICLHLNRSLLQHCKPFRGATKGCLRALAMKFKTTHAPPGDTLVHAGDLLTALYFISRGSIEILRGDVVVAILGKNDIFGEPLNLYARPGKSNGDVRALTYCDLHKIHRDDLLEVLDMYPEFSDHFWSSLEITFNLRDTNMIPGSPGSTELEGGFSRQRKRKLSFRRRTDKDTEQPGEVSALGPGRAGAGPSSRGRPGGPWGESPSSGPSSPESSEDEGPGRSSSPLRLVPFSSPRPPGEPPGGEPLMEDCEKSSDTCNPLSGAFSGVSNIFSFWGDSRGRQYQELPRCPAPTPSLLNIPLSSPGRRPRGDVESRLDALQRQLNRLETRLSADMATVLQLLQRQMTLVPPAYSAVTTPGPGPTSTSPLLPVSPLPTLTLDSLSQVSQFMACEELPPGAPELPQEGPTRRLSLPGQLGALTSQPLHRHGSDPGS

Row | Compound | hERG current change (%, negative = inhibition) at 10uM [%]
1 | COc1ccc(C2(CNC(=O)CCC(=O)O)CCCC2)cc1 | 1.6
2 | CC(C)CCN=Cc1c(O)n(-c2ccccc2)c(=O)c2ccccc12 | -7.19
3 | CN(C)C(=O)N1CCCC(C(=O)NCc2ccccc2)C1 (centres unmarked) | 13.6
4 | CCN1CCN(C(=O)/C=C/c2ccc(C)cc2)CC1 | -23.1
5 | Cc1ccc(NS(=O)(=O)c2ccc(-c3ccc(=O)[nH]n3)o2)cc1 | -12.7
6 | CCSc1nnc(NC(=O)Nc2cccc(C)c2)s1 | 12.8
7 | CC(C)N(C(=O)CSc1nnc(NC(=O)C2CCC2)s1)C(C)C | -11.1
8 | Cc1nn(C)c2nc(-c3cccs3)cc(C(F)(F)F)c12 | 12.7
9 | CCC(c1nnc(SCC(=O)NCCc2ccc(Cl)cc2Cl)o1)N(C)C (centres unmarked) | -19.9
10 | O=C1CN(C(=O)c2ccco2)C(c2ccc(F)cc2)c2cc(Cl)ccc2N1 (centres unmarked) | -35.9
11 | O=C(Cn1ccsc1=NC(=O)c1ccco1)c1ccccc1 | -6.93
12 | CC1CCN(C(CNS(=O)(=O)c2ccccc2)c2ccccc2)CC1 (centres unmarked) | -19.9
13 | O=C(Nc1ccc(Cl)cc1)Nc1nc(-c2ccccc2)cs1 | 11.3
14 | C/C(=N\NC(=O)c1ccc(Cn2cc(Br)cn2)o1)c1cccc(NC(=O)C(C)(C)C)c1 | -49
15 | C/C(=N/OC(=O)C1CC12CCC2)c1ccc(Br)cc1 (centres unmarked) | 7.97
16 | O=S(=O)(Nc1ccc2cn[nH]c2c1)c1ccc(Cl)cc1 | 13.1
17 | CCOC(=O)c1ccccc1NC(=O)CN1C(=O)c2ccccc2S1(=O)=O | 2.58
18 | CCCC[N+]12CCC(CC1)C(C(O)(c1ccccc1)c1ccccc1)C2.[Br-] (centres unmarked) | 5.84
19 | O=C(NC(=S)N1CCCC1)c1ccccc1 | 21.3
20 | C=CCNc1nc(C2(C)CC3(CC(C)(C)OC3=O)C(=O)O2)cs1 (centres unmarked) | 2.28
21 | COC(=O)c1c(NC(C)=O)sc2c1CCCCC2 | 4.28
22 | COc1ccc(C(=O)N/N=C(\C)Cn2nc([N+](=O)[O-])cc2C)cc1 | -15.8
23 | COc1cc(CNCCc2ccc(S(N)(=O)=O)cc2)ccc1OCc1ccc(Cl)cc1.Cl | -31.8

Row | Compound | hERG current change (%, negative = inhibition) at 10uM [%]
24 | Cl.c1ccc(Nc2nc(N3CCOCC3)c3ccccc3n2)cc1 | -14.2
25 | Nc1nc(CN2CCN(Cc3ccccc3)CC2)nc(N2CCCc3ccccc32)n1 | -56.5
26 | CCCOc1ccccc1C1CC(=O)NC2=C1C(=O)CCC2 (centres unmarked) | -1.24
27 | O=C(COC(=O)c1ccccc1[N+](=O)[O-])NCCCc1ccccc1 | -8.71
28 | COc1ccc(-c2nnc(-c3cc4c(ccc5ccccc54)oc3=O)o2)cc1 | -8.75
29 | COC(=O)c1c(-c2ccccc2)noc1C | 14.3
30 | Cc1cc(C(=O)CSc2nnc(-c3ccco3)o2)c(C)n1Cc1ccco1 | 4.88
31 | O=C(NCc1ccccn1)Nc1ccc(Br)cc1Cl | 12.8
32 | CN(C(=O)c1c(Cl)nc2sccn12)C1CCCCC1 | -14.5
33 | Cc1nnc(NC(=O)C(C)Sc2nncn2C)s1 (centres unmarked) | 11.2
34 | O=C(CNCc1ccccc1Cl)Nc1ccccc1N1CCCCC1.O=C(O)C(=O)O | 20.5
35 | O=C(NCc1cccs1)C1CCN(S(=O)(=O)c2cccc([N+](=O)[O-])c2)CC1 | -15.7
36 | CC1CCCN(C(=O)c2ccc3c(c2)C(=O)N(CCC2=CCCCC2)C3=O)C1 (centres unmarked) | -11.9
37 | Cc1cc(C(=O)N2CCc3c([nH]c4ccccc34)C2c2cccc(Cl)c2)nn1C (centres unmarked) | 9.71
38 | CCOC(=O)c1nnn(-c2ccc([N+](=O)[O-])cc2[N+](=O)[O-])c1C | 8.05
39 | O=C(NCCCN1CCOCC1)c1ccc(Cl)cc1Cl | -1.8
40 | COc1cccc([C@@H]2Oc3ccc(OC)cc3C(=O)[C@H]2OC(=O)Nc2cc(OC)c(OC)c(OC)c2)c1 | 15.4
41 | CC12CCC(=O)N1C(C(=O)Nc1cc(Cl)ccc1N1CCCC1)CS2 (centres unmarked) | -26.4
42 | CCCCCC(=O)Nc1ccc(Cl)cn1 | 2.75
43 | CC(C)(C)NC(=O)Cn1nnnc1-c1nonc1N | -4.36
44 | Cc1ccc(O)c(C(=O)c2cnc3c(c2)COc2ccccc2-3)c1 | -1.61
45 | CC(C)C(=O)N1CCN(c2ccccc2NC(=O)c2ccc(C#N)cc2F)CC1 | -72.2
46 | CC(C)Cn1c(N)c(C(=O)COC(=O)c2c(O)c(Cl)cc(Cl)c2Cl)c(=O)n(C)c1=O | -79.8

Row | Compound | hERG current change (%, negative = inhibition) at 10uM [%]
47 | C[C@@H](C(=O)N1CCNCC1)n1cc(CCC(=O)O)nn1.Cl | 19.2
48 | Cc1c(/C=C2\SC(=Nc3cccc(C(=O)O)c3)NC2=O)c2ccccc2n1C | 3.21
49 | O=C(NC1CCN(C(=O)NC2CCCCC2)CC1)c1cccc(F)c1 | -9.83
50 | CN(C(=O)c1ccc2c(c1)S(=O)(=O)N=C1CCCCCN12)c1ccccc1 | 9.44
51 | Clc1nc(Cl)nc(N(c2ccccc2)c2ccccc2)n1 | 2.52
52 | CC1CC(C)(C)CC2(C1)NC(=O)N(CC(=O)Nc1nccs1)C2=O (centres unmarked) | -8.19
53 | C=CCNC(=O)COc1ccc(S(=O)(=O)Nc2ccc(OCC)cc2)cc1 | -2.47
54 | CC(C)n1nc(C(=O)Nc2cccc(S(=O)(=O)N3CCOCC3)c2)c2ccccc2c1=O | -16.8
55 | CC1=C/C(=N\NC(=S)NCc2ccccc2)CC1 | -0.473
56 | O=C(NS(=O)(=O)c1ccc(NC(=O)C2CCCO2)cc1)c1ccccc1 (centres unmarked) | -15.3
57 | Cc1ccccc1NC(=S)N1CCN(c2ccccc2C)CC1 | 20.4
58 | CC(CCc1ccccc1)NCC#N.Cl (centres unmarked) | 18.9
59 | COC(=O)/C=C1\NC(=O)C(C)S1 (centres unmarked) | 17.7
60 | CCC(C(=O)NC1CCCC1)N(C(=O)c1snc(C(N)=O)c1N)c1ccc(OC)c(OC)c1 (centres unmarked) | 15.5
61 | Cc1ccc(-n2c(O)c(/C=N/n3cnnc3)c3ccccc3c2=O)cc1 [7972794] | 0.826
62 | Cc1ccc(-c2n[nH]c(=S)nc2-c2ccc(C)cc2)cc1 | 18.7
63 | Cc1cc(C(=O)NC2CC(C)(C)Cc3c2cnn3-c2ccc(F)cc2)no1 (centres unmarked) | -32.8
64 | O=S(=O)(NCCO)c1ccc2c(c1)Cc1cc(S(=O)(=O)NCCO)ccc1-2 | 16.4
65 | O=C(c1ccc(NC2=NC3CS(=O)(=O)CC3S2)cc1)N1CCc2ccccc2C1 (centres unmarked) | 3.08
66 | Cc1cccc(C)c1NC(=O)COc1cccc(/C=N/NC(=O)C(=O)NCc2ccccc2)c1 | -13.1
67 | COC(=O)c1cc2c(-c3ccccc3)cc3ccccn3c-2c1C(=O)OC | 14.7
68 | Cc1ccc(S(=O)(=O)N2CCCC(C(=O)Nc3ccc(C(=O)O)cc3)C2)cc1Cl (centres unmarked) | -12.1
69 | COc1ccc(C)cc1NC(=O)CCc1c(C)nn(-c2ccc(N3CCCCC3)nn2)c1C | -20.2

Row | Compound | hERG current change (%, negative = inhibition) at 10uM [%]
70 | Cc1ccc2c(ccc(=S)n2C)c1 | 22.1
71 | N=c1c2c(ncn1Cc1ccco1)Oc1c(ccc3ccccc13)C2c1ccccc1 (centres unmarked) | -26.5
72 | O=C(CC1OC(=O)c2ccccc21)NC1CCCCC1 (centres unmarked) | 5.5
73 | O=C(CSc1ccccc1C(=O)O)NCc1ccccc1 | 2.08
74 | CCCN1C(=O)C(O)(CC(=O)c2cccc(OC)c2)c2ccccc21 (centres unmarked) | 1.94
75 | Cc1noc(C)c1CSc1ncnc2sc3c(c12)CCC(C)C3 (centres unmarked) | 14.7
76 | COc1ccc(OC)c(/C=C/c2nc3ccccc3[nH]c2=O)c1 | 14.3
77 | Cc1c(NC(=O)COc2ccc3ccccc3c2)c(=O)n(-c2ccccc2)n1C | -39.3
78 | Cc1ccc(SC[C@H](C)CN2CC[C@H](NC(=O)OCc3ccccc3)CCC2=O)cc1 | -41.6
79 | CC(C)(C)C(=O)Nc1nc(-c2ccc3c(c2)OCO3)cs1 | -36.4
80 | CC(=O)c1cccc(S(=O)(=O)NC2CCSc3ccccc32)c1 (centres unmarked) | -2.51
81 | C=CCn1c(SCC(=O)O)nnc1-c1cccs1 | 0.617
82 | O=C1C=C(Nc2ccc(Cl)cc2)CC(c2ccco2)C1 (centres unmarked) | -1.85
83 | O=C(CCCOc1ccc(Cl)cc1)NC1CCCCC1 | 5.28
84 | COc1ccc(C(CNC(=O)c2cc(F)c(F)c(F)c2F)N2CCOCC2)cc1 (centres unmarked) | 7.98
85 | CCN(CC)CC(=O)Nc1ccc2c(c1)N(C(=O)CN(CC)CC)c1ccccc1CC2.Cl.O | 8.05
86 | Cc1ccsc1/C=N/NC(=S)NCCc1ccccc1 | -2.74
87 | CN(Cc1ccc(F)cc1)C(=O)c1ccc(NS(=O)(=O)c2ccc3[nH]c(=O)[nH]c3c2)cc1 | 12.1
88 | C(=N\Nc1nc(-c2ccccc2)cs1)/c1ccncc1 | -50.5
89 | CSc1ccc(CCNC(=O)CCc2nnc3ccc(N4CCC5(CC4)OCCO5)nn23)cc1 | -0.439

Reference: paper PMC4336329 (PLoS ONE, 2015)
